The supplement of paper PMC12632987
In all, about 4,500 sequences were measured (“median log2 fold change of GCK-ALFA target abundance (FLAG IP / Myc IP barcode read proportion)”: median about 0.078, lowest 2% from about -0.6 on). This is one part of the list.

B1: GBRAP_11_2905 (protein)
chain: KKEELKKAAELAREAAKLLKELQKKGAKDKELWKKAKEALKKLEELVKKYLDESDVELAKYALELLEKAQKDPEKAQQYLDEALATTRVLEGQILLEIEE
B2: GBRAP_160_4824 (protein)
chain: SERVERMEKLIDETAAETIELMAGETAEERAAIAAVEGGQLILELSEDPEFTDELEDTVAAIVDALVAEIRANPDLTDEELRALIERAREAIKEAIRAAF
B3: GBRAP_52_5864 (protein)
chain: MEEEIRAKLEEMLALVKAGKLEEARALARELVASLTEEEVEVLTKVAAELALAAAKADLDAMWKMTELIAEALEEAGFPEELVTLFEDEVGAAIAKVEAA
B4: GBRAP_39_5656 (protein)
chain: EEEEEDELEFSYLIALAVKRQVEEGISDEELIKRGLEKLRELAEEHPEIKELVEELIELAEKGDLETKLAAAGVALLAEEGTPLEEIAEKIKSLIRYLKS
B5: GBRAP_64_6493 (protein)
chain: MEELKKELEEEIEEAIEHLKKAAELSPEKKEEYEELIKKLKEAKELSIEERADVLAEVADRLNELLKEEKDNPETADELGEALDHVSEALYLAFEIEEEE
B6: GBRAP_160_4667 (protein)
chain: EAELAALMASLEEIANEAIEMMEGESHENRVAIARVMGGEIILELEESPLATDEVVDYADELMDELIATIRANPDLTMEEVRALFDEMLAAIRAELEKTL
B7: GBRAP_160_4074 (protein)
chain: SEETEELIEEIEEIAEEAKEFLKESDEENRKAIVRMMAGDILMEVFEAPFISDEDEEEIDEILEEYAEEFEENEDWSMEEKEALIEEMAEKVKEKIKEAA
B8: GBRAP_9_7184 (protein)
chain: TAAAKQAILDNVKEEAELAIEVTPEDKKEEIEKALKKLLEELEALVADPSATLEEILEALEKGAKEIIEIAKETLDEETAKQVEAILNTAILYAEEIVEE
B9: GBRAP_52_5938 (protein)
chain: MEARLQALLDEMIALVKAGDLEGARALAREIVRTLSDEELEAFIDLLAKRAETAAPEDIDYILELAEIVAEELEKEGKEEVLADDLLARVSAAAYKNLQK
B10: GBRAP_74_6554 (protein)
chain: MEELLRRMEELREAKDGRGLIDLAEENVDKVTPEEAARALMIVATFVVEHGEELSDEELERAMDVIVALELKIPNELITDELADAIARAVALAVEREKEL
B11: GBRAP_52_6176 (protein)
chain: MRERMRALVEEIVALAKAGDEEGARAKIRELAETLNDEELRIFAEEFARLVRESPVEDLDLLADLLDLIEDIFEEEGVDPRIISYIYGEFATAAYERELA
B12: GBRAP_160_4264 (protein)
chain: SPEVEKLIKDAEKSRDEILALIDEITPEEARTMAVVEAGSILMEAIELGAVTDEEEDEAMEIIDELEEELEANKDAPPEVHKAIITEHYDKLIELLKKAK
B13: GBRAP_78_6737 (protein)
chain: EVEELLDEALKKLNEAARLAQKFPLEEQTEILDLLIDAATLIWEAEEKGFDLKLLEEALKKLEEALKLVKKLKTPEAEKLAKELEEAIKLVKKAIKLVKK
B14: GBRAP_160_4799 (protein)
chain: SERVQRVADLFREAAERALEMAEGETHEERVNIFDVELGSAIMEAIEEGLLNDEEEDVALEVRDELIAELRANPDLTPEEIAALAARAVERLRERLEKLA
B15: GBRAP_52_5879 (protein)
chain: ELEKAIELLKKAIEAMKKGDEEKAEKILKEIVEKFSEEVIVKAVEKLAEEIKGKSLEEAEAFFKTAELLAEILLEKGGSEEVASLIEALAGAALYEVEQK
B16: GBRAP_52_6218 (protein)
chain: AAARAKAAAEAIVATAKTEGVEAATALLVQLAKELSPEEFRAVLEALVELAKKESAELAEALLDALLAAEDALIAAGVPEADVSDAIAALATVAVEKRAA
B17: GBRAP_160_4239 (protein)
chain: SPELEELRREIEEEVELLVEALLEVPPSQWEAIARAYAGNIVQLVIENPNATDEMEEAVAKEADEMVARLVAARDASPEEIRALGREGAERIVQTVEELS
B18: GBRAP_150_3928 (protein)
chain: SLETLETLVDTLVDYLEAIAEGHLELVPHALKLAKDALEEAEELPEEYKKPVKELLKKIIEKLEKILAGAPEEERKKLIKEALELAKELKKLVEELKKKE
B19: GBRAP_160_4564 (protein)
chain: MEKAKKLVEDLRKDVEKTLEETKDDSIEELRVALSGTIGSHAMEMAEDPRFSDEMVDVLLQARDEIDAYLKENKDASYEEIKAAVMAIVDAAGEKILALA
B20: GBRAP_80_6817 (protein)
chain: MEEEIEKYLEEIREIDPELAEIVEEAVKIAKELGVPLELIARYVKAIAELAKLDLEKAREIAERLLKELKKYKEEGDKEGAYAEIVDATSEALLEVEKLE
B21: GBRAP_83_6970 (protein)
chain: MEKVDVVTTPDHVEEAAEAARDLAEEEGYEVTVILVGSPEEVLKSAEIVAEKLKDIKNVSIRAAVRGVRKEEAEKTKKKLEEIGKKYGLKVEFDAELIEE
B22: GBRAP_160_4673 (protein)
chain: MEEVEKLKKEIEKILKEALEFMRGESLEERVAVAESMKGDIVLLLEESPVVSEEAIEKADKIGDELVAWIRAHPDITDEELEKQLEKALKEIFKVLDELT
B23: GBRAP_14_3822 (protein)
chain: MEEIEKAIEEGYEELAEELSEIAPEKAEEIRELVERQREEVLARIKETGDPVAAVREGREKLLEELDALLADEPPETRATALAEADIETAELEEEVDELL
B24: GBRAP_48_5829 (protein)
chain: MVKDLEKLKKLVEETVEEMKELYEEAKEEGLSDEDILRMIRAELGDLALELEEEGYTKAADYLLEPENREATAEKLKALFDAGKYEEAKEYLLKKLLEAE
B25: GBRAP_160_4732 (protein)
chain: SERIKKFAEEARKIFLEAVEWSKDESKEEAAALFEGAAGEVLMDVMSDPNFTDEQEDKAAEILDELVERLKENWDASVEEKKKIVEEMTERLLEELLKIK
B26: GBRAP_184_5177 (protein)
chain: MIEEFTIKVKDVEETRAKMEEVKEAVKGKKAELYLIVEAEEFTVEMVEALMEILKEMKEEGYVTKITVHLDGKVSEEVVDVAVKLAKEAGINLVIALDEE
B27: GBRAP_52_6128 (protein)
chain: MREEAERLVEELLRLVKEGKEEEARKLAREIVETKDDEFLKLIAEELARRAKEASPEEAELIERAAEILAEEIEKAGRDEVLADYVESTIAAALYENEQA
B28: GBRAP_128_3298 (protein)
chain: SAAALRARYRARVRALKSLTPEELRAATLALIAEAAALGLEAVEILAEVLEELLPEFTVEQLHAIADALAEAAKTATPEERAVLADAENDALLEAEEKEE
B29: GBRAP_160_4260 (protein)
chain: SEELEELIEDVEEDREEILSLVDEISAEEVRTFAVVELGSHLLEAIELEIVTDEEEEELAEIIDDLEERLTAAENASKEEIKAIITESYDKFIEILKKAK

Each binder was assayed against GABARAP, O95166 (assay: median log2 fold change of GCK-ALFA target abundance (FLAG IP / Myc IP barcode read proportion) (log2 ratio); each designed protein is fused to an ALFA-tag nanobody in HEK293 cells to bring the named protein to FLAG-tagged glucokinase (GCK); Myc marks an untargeted standard; higher = target protein stabilised (more abundant)). Settings: target protein: 3xFLAG-MCP-GCK-ALFA reporter; HEK293 landing pad (RPLP).
Summary of the method: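 The readout is target abundance, the per-binder median log2 ratio of FLAG to Myc barcode read proportions. It came from HEK293 landing-pad cells carrying a recombined ALFA-nanobody-fused binder library, induced with 2 μg mL^−1 doxycycline and transfected with a plasmid for a FLAG-tagged target and a Myc-tagged standard. After 48 h, lysates were immunoprecipitated with anti-FLAG and anti-Myc, and circular RNA barcodes were reverse transcribed, amplified and sequenced. Each barcode needed a proportion of at least 10^−7 in both replicates and each binder at least 3 barcodes per replicate, a pseudocount of 10^−6 was added, and the replicates were pooled.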

Chain of GABARAP, O95166 (O95166 whole entry, the tested form may be a part): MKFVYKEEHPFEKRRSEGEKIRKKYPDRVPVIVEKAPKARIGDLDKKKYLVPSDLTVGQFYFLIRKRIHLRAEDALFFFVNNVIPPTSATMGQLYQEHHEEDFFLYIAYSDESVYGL

Binder	median log2 fold change
B1	0.266
B2	0.261
B3	0.192
B4	0.0702
B5	-0.258
B6	-0.576
B7	-0.279
B8	0.252
B9	0.0871
B10	0.0897
B11	-0.213
B12	-0.119
B13	0.171
B14	0.00686
B15	0.0689
B16	0.152
B17	0.18
B18	0.306
B19	0.22
B20	0.039
B21	0.197
B22	-0.132
B23	-0.171
B24	-0.112
B25	-0.148
B26	-0.117
B27	0.391
B28	0.00236
B29	-0.472
